From the supplement of paper PMC10320760
The data scatter; read single values as rough.

B1: Ydj1; a variant is named by its letters at X, in order (parent)
chain: MVKETKFYDILGVPVTATDVEIKKAYRKCALKYHPDKNPSEEAAEKFKEASAAYEILSDPEKRDIYDQFGEDGLSGAGGAGGFPGGGFGFGDDIFSQFFGAGGAQRPRGPQRGKDIKHEISASLEELYKGRTAKLALNKQILCKECEGRGGKKGAVKKCTSCNGQGIKFVTRQMGPMIQRFQTECDVCHGTGDIIDPKDRCKSCNGKKVENERKILEVHVEPGMKDGQRIVFKGEADQAPDVIPGDVVFIVSERPHKSFKRDGDDLVYEAEIDLLTAIAGGEFALEHVSGDWLKVGIVPGEVIAPGMRKVIEGKGMPIPKYGGYGNLIIKFTIKFPENHFTSEENLKKLEEILPPRIVPAIPKKATVDECVLADFDPAKYNRTRASRGGANYDSDEEEQGGEGVQCXXX

Variants of: B1
Test: enrichment factor, frequency at 37 °C / frequency at 25 °C (thermotolerance selection) (ratio); higher = more growth at 37 °C, higher likelihood of farnesylation
Conditions: with Saccharomyces cerevisiae ydj1Δ (yWS304); selective temperature 37 °C; reference temperature 25 °C
Protocol: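 Pooled library of all 8,000 Ydj1-CXXX C-terminal motif variants (native CASQ replaced by C + three variable residues, one codon per amino acid) expressed from a CEN plasmid in S. cerevisiae ydj1Δ (yWS304). The library was grown in SC-Ura liquid to A600 ~2 (~8 generations) at permissive 25 °C or selective 37 °C. Reads from 8 and 7 replicates were pooled and variants counted by NGS. Enrichment factor = frequency at 37 °C / frequency at 25 °C, with a +1 correction; it reports Ydj1-dependent thermotolerance, used as a read-out of farnesylation by yeast FTase.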

Row | Variant | enrichment factor
1 | VKE | 0.111
2 | VKG | 0.148
3 | VKC | 1.13
4 | VKD | 0.176
5 | VKA | 0.275
6 | VKF | 0.431
7 | VKH | 0.0884
8 | WKE | 0.781
9 | WKD | 0.161
10 | WKF | 1.18
11 | WKC | 0.169
12 | WKA | 0.909
13 | WKG | 0.945
14 | WKH | 0.455
15 | NIN | 2.73
16 | NIW | 1.74
17 | NIR | 1.43
18 | NIS | 1.31
19 | NIV | 0.99
20 | NIT | 1.1
21 | NIP | 0.217
22 | NIQ | 3.29
23 | NIY | 1.79
24 | MKH | 0.149

Row | Variant | enrichment factor
25 | MKA | 0.0886
26 | MKD | 0.122
27 | MKE | 0.0662
28 | MKF | 0.133
29 | MKG | 0.132
30 | MKC | 0.118
31 | RKD | 0.227
32 | RKC | 0.165
33 | RKH | 0.164
34 | RKG | 0.116
35 | RKA | 0.0643
36 | RKE | 0.0959
37 | RKF | 0.201
38 | MIR | 1.31
39 | MIQ | 1.53
40 | MIT | 1.18
41 | MIS | 1.96
42 | MIN | 1.74
43 | MIW | 1.85
44 | MIP | 0.214
45 | MIY | 1.99
46 | MIV | 1.33
47 | AKF | 0.276
48 | AKI | 0.114

Row | Variant | enrichment factor
49 | AKG | 0.172
50 | AKA | 0.114
51 | AKD | 0.154
52 | AKE | 0.301
53 | AKH | 0.224
54 | AKC | 0.118
55 | GKF | 0.105
56 | GKG | 0.0891
57 | GKD | 0.0827
58 | GKH | 0.187
59 | GKI | 0.203
60 | GKE | 0.133
61 | GKA | 0.339
62 | GKC | 0.154
63 | QKC | 0.106
64 | QKG | 0.0591
65 | QKH | 0.102
66 | QKF | 0.135
67 | QKA | 0.142
68 | QKE | 0.12
69 | QKD | 0.121
70 | QIW | 1.87
71 | QIQ | 3.56
72 | QIS | 1.63

Row | Variant | enrichment factor
73 | QIN | 2.9
74 | QIP | 0.156
75 | QIT | 2.75
76 | QIR | 1.61
77 | QIV | 1.71
78 | QIY | 1.47
79 | YKE | 0.146
80 | YKA | 0.118
81 | YKG | 0.222
82 | YKF | 0.332
83 | YKH | 0.14
84 | YKD | 0.177
85 | YKC | 0.309
86 | EIQ | 2.44
87 | EIR | 1.34
88 | EIN | 2.37
89 | EIP | 0.154
90 | EIW | 1.24
91 | EIS | 2.55
92 | EIV | 1.98
93 | EIT | 2.98
94 | EIY | 0.98
95 | KIP | 0.211
96 | KIN | 1.74

Row | Variant | enrichment factor
97 | KIW | 0.579
98 | KIY | 4.25
99 | KIR | 0.515
100 | KIQ | 2.81
101 | KIT | 1.82
102 | KIV | 1.24
103 | KIS | 2.82
104 | YIP | 3.26
105 | YIW | 1.16
106 | YIY | 2.9
107 | YIV | 4.63
108 | YIM | 2.7
109 | YIR | 0.314
110 | YIS | 1.06
111 | YIT | 3.09
112 | YIQ | 1.78
113 | YIN | 5.41
114 | HKG | 0.0763
115 | HKI | 0.0998
116 | HKC | 0.16
117 | HKD | 0.176
118 | HKA | 0.153
119 | HKE | 0.0939
120 | HKF | 0.22

Row | Variant | enrichment factor
121 | HKH | 0.294
122 | KKC | 0.103
123 | KKG | 0.186
124 | KKA | 0.156
125 | KKF | 0.134
126 | KKD | 0.325
127 | KKE | 0.203
128 | KKH | 0.156
129 | VIQ | 0.855
130 | VIY | 0.988
131 | VIP | 0.155
132 | VIS | 0.869
133 | VIV | 1.02
134 | VIM | 1.05
135 | VIW | 1.09
136 | VIT | 0.852
137 | VIR | 1.81
138 | VIN | 0.802
139 | PKA | 0.219
140 | PKD | 0.0521
141 | PKE | 0.0839
142 | PKG | 0.24
143 | PKF | 0.165
144 | PKH | 0.163

Row | Variant | enrichment factor
145 | PKC | 0.324
146 | TKF | 0.214
147 | TKH | 0.173
148 | TKG | 0.0982
149 | TKD | 0.129
150 | TKE | 0.209
151 | TKA | 0.114
152 | TKC | 0.146
153 | CKD | 0.132
154 | CKA | 0.126
155 | CKE | 0.158
156 | CKC | 0.406
157 | CKG | 0.196
158 | CKH | 0.12
159 | CKF | 0.288
160 | FIY | 1.74
161 | FIR | 0.47
162 | FIN | 0.671
163 | FIW | 1.3
164 | FIP | 7.72
165 | FIV | 0.695
166 | FIT | 0.901
167 | FIS | 1.74
168 | FIQ | 1.88

Row | Variant | enrichment factor
169 | DIP | 0.193
170 | DIY | 1.94
171 | DIQ | 2.98
172 | DIV | 1.58
173 | DIW | 1.7
174 | DIM | 1.08
175 | DIN | 2.3
176 | DIS | 1.71
177 | DIT | 2.41
178 | DIR | 0.332
179 | FKI | 0.819
180 | FKC | 0.332
181 | FKE | 0.0704
182 | FKF | 0.43
183 | FKH | 0.192
184 | FKA | 0.821
185 | FKG | 0.523
186 | FKD | 0.168
187 | EKC | 0.224
188 | EKG | 0.172
189 | EKF | 0.234
190 | EKH | 0.145
191 | EKE | 0.174
192 | EKA | 0.162

Row | Variant | enrichment factor
193 | EKD | 0.0618
194 | EKI | 0.149
195 | SKA | 0.165
196 | SKE | 0.111
197 | SKG | 0.0854
198 | SKH | 0.127
199 | SKC | 0.163
200 | SKD | 0.069
201 | SKF | 0.241
202 | HIW | 2.08
203 | HIP | 1.81
204 | HIT | 2.43
205 | HIY | 2.23
206 | HIR | 1.18
207 | HIQ | 3.02
208 | HIS | 1.13
209 | HIN | 5.21
210 | HIV | 1.37
211 | WIR | 0.4
212 | WIN | 3.86
213 | WIT | 1.45
214 | WIM | 2.32
215 | WIV | 2.32
216 | WIY | 1.16

Row | Variant | enrichment factor
217 | WIP | 1.99
218 | WIQ | 1.82
219 | WIS | 1.74
220 | WIW | 0.695
221 | IIR | 1.88
222 | IIQ | 1.33
223 | IIY | 1.37
224 | IIV | 1.25
225 | IIS | 0.834
226 | IIW | 0.579
227 | IIP | 0.15
228 | IIT | 0.93
229 | IIN | 2.24
230 | LIW | 0.61
231 | LIR | 1.22
232 | LIQ | 2.81
233 | LIN | 5.13
234 | LIV | 0.975
235 | LIP | 0.182
236 | LIS | 1.63
237 | LIY | 3.12
238 | LIT | 2.03
239 | TIV | 0.699
240 | TIY | 1

Row | Variant | enrichment factor
241 | TIR | 2.49
242 | TIS | 0.732
243 | TIT | 0.729
244 | TIW | 1.16
245 | TIM | 0.632
246 | TIN | 1.13
247 | TIQ | 0.847
248 | TIP | 0.134
249 | DKG | 0.165
250 | DKH | 0.166
251 | DKF | 0.169
252 | DKD | 0.127
253 | DKA | 0.0872
254 | DKC | 0.133
255 | DKE | 0.113
256 | NKG | 0.0681
257 | NKE | 0.124
258 | NKH | 0.226
259 | NKC | 0.0782
260 | NKD | 0.121
261 | NKA | 0.0891
262 | NKF | 0.287
263 | RIY | 0.59
264 | RIR | 0.946

Row | Variant | enrichment factor
265 | RIP | 0.122
266 | RIT | 0.646
267 | RIQ | 1.48
268 | RIS | 0.993
269 | RIW | 0.689
270 | RIN | 1.74
271 | RIM | 0.625
272 | RIV | 1.1
273 | IKD | 0.187
274 | IKI | 0.243
275 | IKC | 0.31
276 | IKH | 0.145
277 | IKG | 0.101
278 | IKA | 0.118
279 | IKF | 0.213
280 | IKE | 0.188
281 | GIY | 1.31
282 | GIN | 1.79
283 | GIP | 0.16
284 | GIS | 1.8
285 | GIR | 0.366
286 | GIV | 1.18
287 | GIW | 0.965
288 | GIT | 2.09

Row | Variant | enrichment factor
289 | GIQ | 1.26
290 | SIW | 1.32
291 | SIM | 0.559
292 | SIS | 1.33
293 | SIT | 1.48
294 | SIY | 1.33
295 | SIR | 1.6
296 | SIV | 1.26
297 | SIQ | 1.06
298 | SIP | 0.261
299 | SIN | 1.94
300 | LKD | 0.29
301 | LKA | 0.255
302 | LKC | 0.251
303 | LKE | 0.143
304 | LKG | 0.174
305 | LKF | 0.0876
306 | LKH | 0.151
307 | CIM | 1.03
308 | CIR | 1.05
309 | CIY | 0.618
310 | CIT | 0.837
311 | CIS | 0.958
312 | CIW | 0.995

Row | Variant | enrichment factor
313 | CIQ | 0.836
314 | CIP | 1.23
315 | CIV | 0.898
316 | CIN | 1.08
317 | AIQ | 1.83
318 | AIS | 0.736
319 | AIY | 0.772
320 | AIW | 1.93
321 | AIV | 0.641
322 | AIP | 0.153
323 | AIR | 1.73
324 | AIN | 3.86
325 | AIT | 1.05
326 | PIR | 1.19
327 | PIV | 0.722
328 | PIP | 0.139
329 | PIW | 0.539
330 | PIT | 1.49
331 | PIS | 1.6
332 | PIY | 1.19
333 | PIN | 1.54
334 | PIQ | 1.05
